Experimental data: the supplement of paper PMC4723716
The full ranking holds about 3,600 compounds; the median of “viability index relative to DMSO control” is about 0.81, and the lowest 2% start at about 0.13. This is one part of the list.

Test system: Plasmodium falciparum NF54 stage V gametocytes
Assay: viability index relative to DMSO control (fraction); higher = less gametocyte killing
Settings: 1.25 µM, incubation time: 72 h
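Further: 384-well serum-free SaLSSA: MitoTracker Red CMXRos staining with saponin lysis, high-content imaging, treated-well particle count divided by plate-mean count of DMSO wells.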

Row | SMILES | viability index
1 | CCC(Nc1ccc(OC)cc1)=C1C(=O)CC(C)(C)CC1=O | 0.806
2 | CCCc1c(C)nc2ccccc2c1O | 0.71
3 | CCSC(Cl)=C(NC(=O)c1ccccc1)[P+](c1ccccc1)(c1ccccc1)c1ccccc1 | 0.0362
4 | CCOc1ccccc1C1C(C#N)=C(SCC(=O)Nc2ccc(Cl)cc2)NC(C)=C1C(=O)Nc1ccccc1 (stereo not drawn) | 0.5
5 | CCOC(=O)C1=C(C)NC2=C(C(=O)C(C(=O)OCC)C(c3ccccc3OC)C2)C1c1ccc(Cl)cc1 (stereo not drawn) | 0.869
6 | CC(C)Cc1nc(N2CCOCC2)c2nnn(Cc3ccccc3)c2n1 | 0.779
7 | Cc1nc(N2CCC(C)CC2)c2c(C)c(C(=O)Nc3ccc(C(F)(F)F)cc3)sc2n1 | 0.934
8 | CCN1CCC(NCCC(c2ccccc2)c2ccccc2)CC1 | 0.687
9 | COc1ccccc1NC1=CC(=NS(=O)(=O)c2cccs2)c2ccccc2C1=O | 0.0154
10 | O=c1c2sccc2nc(SCc2cccc([N+](=O)[O-])c2)n1-c1ccc(Br)cc1 | 0.867
11 | CC(C)CN1CCC(O)(c2ccc3oc(C(=O)Nc4ccc5c(c4)OCO5)cc3c2)CC1 | 1.3
12 | COc1ccc(S(=O)(=O)N2CCC(c3nnc(-c4ccccc4OC)o3)CC2)cc1 | 0.95
13 | O=C(Nc1ccc(F)c(Cl)c1)c1c2c(nc3ccccc13)CCN(Cc1ccccc1)C2 | 0.497
14 | CCOC(=O)c1c[nH]c2c(ccc3ccccc32)c1=O | 0.667
15 | CCOC(=O)C1=C(C)N=c2sc(=Cc3c4ccccc4cc4ccccc34)c(=O)n2C1c1cc(OC)ccc1OC (stereo not drawn) | 0.853
16 | COc1cccc(C=C2SC(=Nc3ccccc3)NC2=O)c1OC | 0.668
17 | CC(=O)N(C1=C(N(C)C)C(=O)c2ccccc2C1=O)c1ccc(F)c(F)c1 | 0.0288
18 | CCCC1(CCC)NC(=S)N(c2ccc(C)c(C)c2)N1 | 1.11
19 | CN1CCN(c2c3c(c(C#N)c4nc5ccccc5n24)CCC3)CC1 | 1.17
20 | COc1ccccc1C(NC(=O)c1cc(OC)c(OC)c(OC)c1)c1cc(Cl)c2cccnc2c1O (stereo not drawn) | 0.793
21 | CC(=O)Nc1ccc(NC(=O)C(C)(C)CCl)cc1 | 0.871
22 | OC(CN1CCN(C2c3ccccc3-c3ccccc32)CC1)Cn1c2ccc(Cl)cc2c2cc(Cl)ccc21 (stereo not drawn) | 0.609

Row | SMILES | viability index
23 | O=C(Nc1ccc(Cl)c(Cl)c1)Nc1ccc(Cl)c(Cl)c1 | 0.913
24 | CCOC(=O)c1ccc(N(C(=O)Cc2c[nH]c3ccccc23)C(C(=O)NC2CCCCC2)c2cccc(OC)c2OC)cc1 (stereo not drawn) | 0.849
25 | Clc1cccc(Nc2nc(NCc3ccco3)c3ccccc3n2)c1 | 0.927
26 | Cc1ccc2c(c1)N(CC(=O)NC1CCCCC1C)C(=O)CO2 (stereo not drawn) | 1.15
27 | CC(=NNc1nc(-c2ccccc2O)nc2ccccc12)c1ccccc1O | 0.785
28 | N#CC(=Cn1cc(Cc2ccc(Cl)cc2Cl)c2ccccc21)c1nn(CCO)c(N)c1C#N | 1.11
29 | O=C(O)Cn1cnc2nc3n(c2c1=O)CCC3 | 0.943
30 | CCc1ccc(C2C(C(=O)Nc3ccccc3)=C(C)Nc3c(C(=O)Nc4ccc(C)cc4)cnn32)cc1 (stereo not drawn) | 0.446
31 | COc1cc(-c2nc(-c3ccc(Sc4ccccc4)cc3)c(-c3ccccc3)[nH]2)cc(OC)c1O | 0.643
32 | COc1ccc(-c2cc3c(nn2)-c2ccccc2C3=O)cc1 | 0.614
33 | COCCNCC(O)CON=C1c2ccccc2-c2ccccc21 (stereo not drawn) | 0.711
34 | N#Cc1ccc(NC(=O)NC2CC3CCCC(C2)N3CCc2ccccc2)cc1 (stereo not drawn) | 0.706
35 | Cc1cc(Nc2cccc(C(F)(F)F)c2)nc2ccc(NC(=O)c3cncc(Br)c3)cc12 | 0.892
36 | COc1ccc(-n2nc(C(=O)NCC(=O)Nc3ccc(F)cc3)c3ccccc3c2=O)cc1Cl | 1.02
37 | Oc1c2c(nc3cc(-c4ccc(-c5ccccc5)cc4)nn13)CCCC2 | 0.768
38 | CCc1c(C)nc(SCC(=O)NNC(C)=O)nc1O | 0.9
39 | Oc1cc(-c2ccccc2)nc2ccccc12 | 0.73
40 | Cc1cc(Nc2ccc(OCc3ccccc3)cc2)nc2cc(O)ccc12 | 0.386
41 | CCOc1ccc(NC(=O)c2ccc(F)c(S(=O)(=O)NC3CCCCCC3)c2)cc1 | 1
42 | Cc1ccc(N2C(=O)C3C(C2=O)C2(c4ccccc4)C(=O)C3(c3ccccc3)C(c3ccccc3)=C2c2ccccc2)c([N+](=O)[O-])c1 (stereo not drawn) | 0.939
43 | O=C(O)c1ccc(NC(=O)c2ccc(N3C(=O)C4C5C=CC(C5)C4C3=O)cc2)cc1 (stereo not drawn) | 1.06
44 | CCCc1cc(-c2onc(C)c2-c2ccc(C(=O)OCC)o2)c(O)cc1OC | 0.726

Row | SMILES | viability index
45 | Cc1cc(C)n(CC(O)Cn2c3ccc(I)cc3c3cc(I)ccc32)n1 (stereo not drawn) | 0.717
46 | O=C(CCN1C(=O)C2CCCCC2C1=O)N1CCc2ccccc2C1 (stereo not drawn) | 0.906
47 | O=C1CC(c2ccccc2)CC2=C1C(c1ccccc1F)Nc1ccccc1N2 (stereo not drawn) | 0.551
48 | COc1cccc(NC(=O)c2ccc(NCCCC3CCCCCC3)c([N+](=O)[O-])c2)c1 | 0.743
49 | CCc1cc2c3c(c1)C1(C(=O)N3C(C)(C)CC2C)C(C#N)=C(N)Oc2cc(C)oc(=O)c21 (stereo not drawn) | 1.13
50 | COc1cc2c(cc1OC)-c1cc3ccc(OC)c(OC)c3c[n+]1CC2 | 0.942
51 | COc1ccc(NC(=O)NCc2cccn2Cc2ccc(F)cc2)cc1OC | 0.952
52 | CCN1C(=Cc2ccc3cc(C)ccc3[n+]2C)Sc2ccc3ccsc3c21 | 0.297
53 | Cc1ccc(C)n1-c1ccc(N(C)C)cc1 | 0.616
54 | O=c1c(=Cc2ccc(Cl)cc2)sc2nc3ccccc3n12 | 0.804
55 | COc1ccc(NC(=O)c2c(Cl)nc(Cl)c([N+](=O)[O-])c2C)cc1 | 0.919
56 | CC1=C(C(=O)OC(C)C)C(c2cccc([N+](=O)[O-])c2)C2=C(CCCC2=O)N1 (stereo not drawn) | 0.66
57 | O=[N+]([O-])c1cccc2c(S(=O)(=O)NCCCN(CCO)CCO)cccc12 | 0.657
58 | CCCCSc1ncnc2c1c(-c1ccccc1)cn2-c1cccc(F)c1 | 1.1
59 | Cc1cc(N2CCN(C3CCCC3)CC2)n2c(nc3ccccc32)c1C#N | 1.12
60 | COC(=O)C1=C(C)N(C)C(C)=C(C(=O)OC)C1c1ccc(C)cc1 | 0.679
61 | Nc1nonc1-n1nnc(-c2ccccc2)c1C(=O)NN=Cc1ccc(F)c(Br)c1 | 0.717
62 | Cc1ccnc(NC(c2cccc(Cl)c2Cl)c2ccc3cccnc3c2O)c1 (stereo not drawn) | 0.898
63 | CCOC(=O)c1c(CNC)n(C)c2cc(Br)c(O)cc12 | 0.301
64 | COc1cc(C(=O)N2N=C(c3c(-c4ccccc4)c4cc(Br)ccc4[nH]c3=O)CC2c2cccc([N+](=O)[O-])c2)cc(OC)c1OC (stereo not drawn) | 0.543
65 | COc1ccc2cc(CNCCCO)c(N3CCN(c4ccc(F)cc4)CC3)nc2c1 | 0.663
66 | CCOC(=O)c1c(C)n(-c2ccccc2)c2ccc(O)cc12 | 0.846

Row | SMILES | viability index
67 | Cc1cc(N2CCN(Cc3ccc(F)cc3)CC2)n2c(nc3ccccc32)c1C#N | 0.861
68 | CCCCCCN(CCCCCC)CC(O)c1cc(-c2ccc(Cl)cc2)nc2c(C)cc(C)cc12 (stereo not drawn) | 0.738
69 | COc1ccc2ccc(OC)c(C3C(C#N)=C(N)OC4=C3C(=O)CC(C)(C)C4)c2c1 (stereo not drawn) | 0.859
70 | CC1=NN(c2ccccc2)C(=O)C1=NNc1c(Br)cc(Br)cc1Br | 0.819
71 | CCSc1nc2sc3c(c2c(=O)n1-c1ccccc1)CCN(Cc1ccccc1)C3 | 0.57
72 | COCCOC(=O)C1=C(C)NC2=C(C(=O)CC(c3ccc(OC)cc3)C2)C1c1ccc(F)cc1 (stereo not drawn) | 0.796
73 | CCOc1ccc(S(=O)(=O)Oc2cccc3cccnc23)cc1 | 1.11
74 | Cc1cc(N2CCCCC2)nc2ccc(NC(=O)c3cccc([N+](=O)[O-])c3)cc12 | 0.787
75 | CCN1C(=Cc2ccc3ccccc3[n+]2CC)Sc2c1ccc1ccccc21 | 0.401
76 | O=C(O)CSc1ccc(C(=O)NC2CCCCNC2=O)cn1 (stereo not drawn) | 0.774
77 | Oc1cccc(-c2nc(-c3ccccc3)c(-c3ccc4oc5ccc(-c6[nH]c(-c7cccc(O)c7)nc6-c6ccccc6)cc5c4c3)[nH]2)c1 | 0.859
78 | N=c1n(CCN2CCCC2)c2ccccc2n1CC(O)c1ccc(Cl)c(Cl)c1 (stereo not drawn) | 0.602
79 | Nc1c(C(=O)c2ccc(Br)cc2)sc2nc(-c3cccnc3)ccc12 | 0.776
80 | O=C(O)CCCNC(=O)C(O)(c1ccccc1)c1ccccc1 | 1.16
81 | COc1ccc(C(=O)NCCc2ccc(C)cc2)cc1OC1CCN(C(C)=O)CC1 | 0.913
82 | Clc1ccc2[nH]c3c(NCCCN4CCOCC4)ncnc3c2c1 | 0.915
83 | CCCOC(=O)C1=C(C)NC2=C(C(=O)CC(c3ccc(Cl)cc3)C2)C1c1ccccc1F (stereo not drawn) | 0.624
84 | CCCCCCc1cc2cc(-c3nc4ccccc4[nH]3)c(=Nc3ccccc3C)oc2cc1O | 0.728
85 | CCNC(=O)C=Cc1ccc(C(C)(C)C)cc1 | 0.635
86 | CCc1c(C(C)S(=O)(=O)c2ccc(C)cc2)[nH]c(=O)n1-c1ccc(OC(F)(F)F)cc1 (stereo not drawn) | 0.988
87 | CCOC(=O)c1cnc2ccccc2c1Nc1ccc(C(C)=O)cc1 | 0.698
88 | CC1=C2C(=O)c3ccccc3C2NC(=O)N1 (stereo not drawn) | 1.09
